According to article PMC4336329 (PLoS ONE, 2015):
Among all 310,000 compounds or so, about 2,200 (0.71%) showed an effect of 50% or more. The effect is printed as a negative number. The list shows a part of the results.

Target: human ether-à-go-go-related gene (hERG) potassium channel (human, UniProt Q12809)
Assay: primary screen, population patch clamp on CHO cells stably expressing hERG

Sequence of human ether-à-go-go-related gene (hERG) potassium channel (Q12809 whole entry, looked up): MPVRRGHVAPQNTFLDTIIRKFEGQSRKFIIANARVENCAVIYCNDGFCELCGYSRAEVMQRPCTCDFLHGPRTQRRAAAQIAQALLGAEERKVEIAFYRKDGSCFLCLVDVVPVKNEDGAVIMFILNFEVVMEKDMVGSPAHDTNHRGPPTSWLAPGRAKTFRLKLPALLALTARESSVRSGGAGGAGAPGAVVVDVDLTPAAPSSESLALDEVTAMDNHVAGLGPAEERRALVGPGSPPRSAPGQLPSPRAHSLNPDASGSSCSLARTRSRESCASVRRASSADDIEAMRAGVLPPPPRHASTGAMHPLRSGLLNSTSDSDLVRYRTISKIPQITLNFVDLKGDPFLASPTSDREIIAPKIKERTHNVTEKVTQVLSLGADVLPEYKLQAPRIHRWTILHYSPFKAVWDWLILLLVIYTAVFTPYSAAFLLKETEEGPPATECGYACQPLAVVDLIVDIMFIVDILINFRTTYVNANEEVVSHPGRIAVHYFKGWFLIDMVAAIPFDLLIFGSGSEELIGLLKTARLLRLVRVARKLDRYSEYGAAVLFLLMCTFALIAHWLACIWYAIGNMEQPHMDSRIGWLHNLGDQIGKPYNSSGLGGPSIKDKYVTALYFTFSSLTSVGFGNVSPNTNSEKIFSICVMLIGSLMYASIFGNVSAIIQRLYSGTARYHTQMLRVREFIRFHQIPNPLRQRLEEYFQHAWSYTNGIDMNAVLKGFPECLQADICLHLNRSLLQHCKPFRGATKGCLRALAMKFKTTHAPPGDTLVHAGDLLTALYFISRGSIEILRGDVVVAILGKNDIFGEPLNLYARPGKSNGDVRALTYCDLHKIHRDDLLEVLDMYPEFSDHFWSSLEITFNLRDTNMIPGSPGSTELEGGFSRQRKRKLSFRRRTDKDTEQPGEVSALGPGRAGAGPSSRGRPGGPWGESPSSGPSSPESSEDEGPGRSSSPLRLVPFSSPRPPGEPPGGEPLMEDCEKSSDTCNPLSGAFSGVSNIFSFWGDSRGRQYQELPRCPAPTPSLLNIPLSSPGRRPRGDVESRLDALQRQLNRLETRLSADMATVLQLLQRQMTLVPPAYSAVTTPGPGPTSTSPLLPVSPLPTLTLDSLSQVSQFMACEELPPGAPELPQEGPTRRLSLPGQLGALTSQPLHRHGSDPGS

Compared with `CCCC(=O)Nc1ccc2c(c1)nc(CCNC(=O)c1ccccc1)n2C`, `COc1cccc(NC(=O)Cn2nnc(C(=O)NCCc3ccccc3)c2N)c1` is lower in “hERG current change (%, negative = inhibition) at 1uM” value: 10.2% for the first, 10.1% for the second.

First: O=C1OC(c2cccs2)=N/C1=C\c1ccc(-c2cccc(Cl)c2)o1
Second: NC(=O)c1cccn1Cc1cccc(Cl)c1
The “hERG current change (%, negative = inhibition) at 1uM” value of the first is higher: 8.62% for the first, -0.43% for the second.

Compared with `O=Cc1cc2cc3c(cc2nc1Cl)OCCO3`, `Cc1cc(C)nc(OC(=O)c2ccc(Cl)cc2Cl)n1` is lower in “hERG current change (%, negative = inhibition) at 1uM” value: 13.7% for the first, 8.05% for the second.

Going from `CCOC(=O)C1CCCN(C2CC(=O)N(c3ccc(C)c(C)c3)C2=O)C1` (stereo not shown) to `Cc1ccc(S(=O)(=O)N2CCN(C(=O)N(C)C)CC2)cc1C`, the “hERG current change (%, negative = inhibition) at 1uM” value rises from 6.77% to 12.7%.

First: CN(C)[C@@H](CO)c1nnc([C@H](CCC(=O)O)NC(=O)C2CCNCC2)o1.Cl
Second: C/C(=N\Nc1nnc(C)c(=O)[nH]1)C(=O)O
The “hERG current change (%, negative = inhibition) at 1uM” value of the first is higher: 19.7% for the first, 10.7% for the second.

Going from `CCC(C)NC(=O)COC(=O)c1cccnc1Nc1ccccc1F` (stereo not shown) to `O=C(Cc1ccccc1)Nc1ccccc1C(=O)O`, the “hERG current change (%, negative = inhibition) at 1uM” value falls from 12.5% to 7.71%.

First: Cn1c(=O)n(C)c2cc(NC(=O)c3cc4ccccc4o3)ccc21
Second: COc1ccc(NS(=O)(=O)c2ccc3c(c2)n(C)c(=O)n3C)cc1
The “hERG current change (%, negative = inhibition) at 1uM” value of the first is lower: 0.707% for the first, 10.5% for the second.

Going from `Cc1ccc(C)c(NC(=S)N/N=C2\CCc3ccccc32)c1` to `Cc1ccc2nc(C3CCCN(C(=S)Nc4cccc(C)c4C)C3)[nH]c2c1` (stereo not shown), the “hERG current change (%, negative = inhibition) at 1uM” value rises from 8.65% to 10%.

Going from `O=C(Nc1cccnc1)c1ccccc1Oc1ccccc1` to `O=C1c2ccccc2C(=Nc2ccccc2)C1c1cccc(Br)c1` (stereo not shown), the “hERG current change (%, negative = inhibition) at 1uM” value rises from 7.62% to 7.85%.

Compared with `CCOc1cccc(/C=C/c2ccc3cccc(O)c3n2)c1O`, `CCOc1ccccc1NC1=C(Cl)C(=O)N(c2ccc(OC)cc2)C1=O` is lower in “hERG current change (%, negative = inhibition) at 1uM” value: 12% for the first, -0.465% for the second.

Compared with `OCCN1CCN(C(=S)Nc2ccccc2)CC1`, `CC(=O)Nc1cccc(C(=O)N2CCN(Cc3ccccc3)CC2)c1` is higher in “hERG current change (%, negative = inhibition) at 1uM” value: 4.66% for the first, 12.2% for the second.

First: CCC(NS(=O)(=O)c1cnn(CC)c1)c1ccccc1 (stereo not shown)
Second: COc1ccc(F)cc1S(=O)(=O)NC(Cc1ccccc1)C(N)=O (stereo not shown)
The “hERG current change (%, negative = inhibition) at 1uM” value of the first is higher: 24.3% for the first, 12.8% for the second.

First: O=[N+]([O-])c1cc(/C=N/O)ccc1Sc1ccccc1
Second: COc1ccccc1-c1cc(=O)c2c(O)ccc([N+](=O)[O-])c2o1
The “hERG current change (%, negative = inhibition) at 1uM” value of the first is lower: 3.86% for the first, 4.67% for the second.

Compared with `CCc1c(C)nc2ncnn2c1NCCc1ccc(Cl)cc1`, `Cc1ccc(CNc2ncnc3cc(Cl)ccc23)o1` is higher in “hERG current change (%, negative = inhibition) at 1uM” value: -2.06% for the first, 5.91% for the second.

Going from `CS(=O)(=O)c1[nH]nc(-c2cccc(Cl)c2)c1C#N` to `COc1cc(C)c(Cl)cc1S(=O)(=O)NCc1ccccn1`, the “hERG current change (%, negative = inhibition) at 1uM” value falls from 11% to 10.7%.

Going from `CCc1ccc(OCCOCC(O)CNC(C)CC)cc1.Cl` (stereo not shown) to `CCc1ccc(S(=O)(=O)NCC(O)COc2ccc(OC)cc2)cc1` (stereo not shown), the “hERG current change (%, negative = inhibition) at 1uM” value rises from 4.27% to 8.34%.

Going from `O=C(CCC(=O)OCC(=O)c1ccccc1)Nc1cccc(Cl)c1` to `NC(=O)c1cccc(NC(=O)CCCCC(=O)Nc2cccc(C(N)=O)c2)c1`, the “hERG current change (%, negative = inhibition) at 1uM” value rises from 5.37% to 10.5%.

Going from `CSc1nc(O)c(C(c2ccccc2)c2c(O)nc(SC)[nH]c2=O)c(=O)[nH]1` to `O=C(CSc1nc(-c2ccccc2)cc(=O)[nH]1)Nc1ccc(Br)cc1`, the “hERG current change (%, negative = inhibition) at 1uM” value falls from 13.3% to 12.9%.

Compared with `CCn1c(C(C#N)/C(=N\S(=O)(=O)c2cccs2)c2ccccc2)nc2ccccc21` (stereo not shown), `O=[N+]([O-])c1ccc(NC(=S)N/C(=N/CS(=O)(=O)c2ccccc2)c2ccccc2)cc1` is lower in “hERG current change (%, negative = inhibition) at 1uM” value: 12.1% for the first, 11% for the second.

Compared with `CCn1c(SCC(=O)Nc2nc3ccc(OC)cc3s2)nc2c1c(=O)n(C)c(=O)n2C`, `Cc1cc(NC(=O)CSc2nncc(=O)n2N)no1` is higher in “hERG current change (%, negative = inhibition) at 1uM” value: -28.1% for the first, 6.99% for the second.

First: O=C(Nc1cccc(Cl)c1)NC1CCS(=O)(=O)C1 (stereo not shown)
Second: COc1ccc(NC(=O)Nc2cccs2)cc1Cl
The “hERG current change (%, negative = inhibition) at 1uM” value of the first is higher: 12.9% for the first, 5.34% for the second.

First: CS(=O)(=O)N(CC(=O)Nc1ccc2c(c1)OCO2)c1ccccc1
Second: COc1ccc(OC)c(N(CC(=O)Nc2cccnc2)S(C)(=O)=O)c1
The “hERG current change (%, negative = inhibition) at 1uM” value of the first is lower: 13.8% for the first, 14.4% for the second.

First: CC(C)=CCC1=C(OCC(=O)O)C(=O)c2ccccc2C1=O
Second: CC(C)OC(=O)Cn1c(=O)sc2ccccc21
The “hERG current change (%, negative = inhibition) at 1uM” value of the first is higher: 7.91% for the first, -2.67% for the second.

Compared with `COc1cccc(NC(=O)COc2coc(CN3CCN(c4ccccc4)CC3)cc2=O)c1`, `COc1cccc2cc(C(=O)N3CCN(c4ccccc4F)CC3)c(=O)oc12` is lower in “hERG current change (%, negative = inhibition) at 1uM” value: 13.8% for the first, 9.64% for the second.

Going from `Oc1ccc(C=NC2CCCCC2)c(O)c1` to `C=CCn1c(SCC(=O)NCc2ccccc2)nnc1C1CCCCC1`, the “hERG current change (%, negative = inhibition) at 1uM” value falls from 15.2% to 9.62%.

Going from `C=CCn1c(-c2cccn(Cc3ccc(Cl)cc3)c2=O)n[nH]c1=S` to `Cc1ccc(NC(=O)Cn2c(CCC(=O)O)ccc2-c2ccc(Cl)cc2)cc1`, the “hERG current change (%, negative = inhibition) at 1uM” value rises from 11.2% to 12.6%.

First: COC(=O)c1scc(S(=O)(=O)C(C)(C)C)c1-n1cccc1
Second: COC(=O)c1ccc(-n2cncn2)c([N+](=O)[O-])c1
The “hERG current change (%, negative = inhibition) at 1uM” value of the first is lower: 10.2% for the first, 12.9% for the second.

Going from `COCCSc1nnc(NC(=O)CCS(=O)(=O)Cc2ccccc2)s1` to `CCOC(=O)Cc1csc(NC(=O)CCNS(=O)(=O)c2ccc3c(c2)CCC(=O)N3)n1`, the “hERG current change (%, negative = inhibition) at 1uM” value rises from 4.79% to 10.8%.

Going from `Cc1ccc(OCC(=O)N2CCCCC2)c(Br)c1` to `CC1CCCN(C(=O)CSCC(=O)Nc2nc(-c3cccs3)cs2)C1` (stereo not shown), the “hERG current change (%, negative = inhibition) at 1uM” value rises from -6.22% to 6.95%.

First: CCCCSCCCNC(=O)c1cn(CC)c2ccc(S(=O)(=O)N3CCOCC3)cc2c1=O
Second: CCCCn1nnnc1SCC(=O)N1CCOCC1
The “hERG current change (%, negative = inhibition) at 1uM” value of the first is lower: 2.98% for the first, 9.21% for the second.

First: CC(C)NC(=S)N1CCN(S(C)(=O)=O)CC1
Second: CS(=O)(=O)N1CCN(C(=O)c2ccc(F)cc2)CC1
The “hERG current change (%, negative = inhibition) at 1uM” value of the first is higher: 8.23% for the first, -12% for the second.

First: O=C(NC(=O)N1CCC2(CC1)OCCO2)c1ccc(Cl)cc1
Second: Cc1ccc(NC(=O)c2ccc(N3C(=O)C4CC=C(Cl)CC4C3=O)cc2)cc1 (stereo not shown)
The “hERG current change (%, negative = inhibition) at 1uM” value of the first is higher: 18.3% for the first, 14.3% for the second.

Going from `CC(C)(O)CCC(C)(C)O` to `CCOC(=O)c1c(CC(C)C)csc1NC(=O)C(C)C`, the “hERG current change (%, negative = inhibition) at 1uM” value falls from 11% to 6.76%.

Compared with `CCn1nnnc1-c1ccc(OC)c(S(=O)(=O)Nc2ccc(S(N)(=O)=O)cc2)c1`, `Cc1ccc(S(=O)(=O)NCCC(=O)NNC(=O)c2ccccc2O)cc1C` is lower in “hERG current change (%, negative = inhibition) at 1uM” value: 8.72% for the first, -9.68% for the second.

Going from `COc1ccc(N/C(=C/[N+](=O)[O-])SC)cc1` to `CCOc1ccc(NC(=S)Nc2cccc3cnccc23)cc1`, the “hERG current change (%, negative = inhibition) at 1uM” value falls from 10.8% to 2.53%.

Compared with `Cc1csc(=O)n1CCC(=O)OCC(=O)NNC(=O)c1ccc(Br)cc1`, `CCCc1nnc(SCC(=O)Nc2ccc(C(=O)OCC)cc2)o1` is higher in “hERG current change (%, negative = inhibition) at 1uM” value: 3.41% for the first, 11.2% for the second.

Compared with `CCC(=O)N1CC23C=CC(CC2CC12CCCCC2)O3` (stereo not shown), `O=C(CC12CC3CC(CC(C3)C1)C2)N1CCCOC1` is higher in “hERG current change (%, negative = inhibition) at 1uM” value: -7.05% for the first, -1.93% for the second.

Compared with `Cc1noc(C)c1COC(=O)c1csc2c1CCC(C)C2` (stereo not shown), `COC(=O)C1C(=O)c2c([nH]c(C(=O)OCCOC(C)C)c2C)CC1C` (stereo not shown) is lower in “hERG current change (%, negative = inhibition) at 1uM” value: 1.62% for the first, 1.2% for the second.

First: Cc1ccc(NC(=O)C(OC(=O)c2ccc(F)cc2)c2ccccc2)cc1Cl (stereo not shown)
Second: Cc1ccc(S(=O)(=O)Nc2ccccc2C(=O)Nc2nc(-c3ccc(F)cc3)cs2)cc1
The “hERG current change (%, negative = inhibition) at 1uM” value of the first is lower: 7.06% for the first, 14.7% for the second.

First: CNc1c([N+](=O)[O-])cnn1-c1ccc(Cl)cc1
Second: Cc1cc(-c2ccc(N3CCOCC3)cc2)nc2ccccc12.Cl
The “hERG current change (%, negative = inhibition) at 1uM” value of the first is higher: 12.5% for the first, 7.84% for the second.

Compared with `COc1ccc(-c2cc(=O)oc3cc(OC(C)C(=O)Nc4ccc(CN5CCOCC5)cc4)ccc23)cc1` (stereo not shown), `CN1CCN(c2ccc(NC(=S)NC(=O)c3cccc4c(Br)cccc34)cc2)CC1` is higher in “hERG current change (%, negative = inhibition) at 1uM” value: 13.3% for the first, 28.8% for the second.

Compared with `c1nnc(NC2=NCCC2)s1`, `Nc1nc(SCC(=O)Nc2ccc3c(c2)CCC3)n[nH]1` is higher in “hERG current change (%, negative = inhibition) at 1uM” value: 4.26% for the first, 9.58% for the second.

Going from `COC(=O)CC1C(=O)NCCN1C(=S)Nc1cc(C)cc(C)c1` (stereo not shown) to `CCCOc1ccc(NCC(=O)Nc2ccc(C)cc2C)cc1`, the “hERG current change (%, negative = inhibition) at 1uM” value rises from 9.96% to 28.3%.

Compared with `Oc1ccc(-c2cccc(-c3ccc(O)cc3)c2)cc1`, `C=CCOc1ccc(C2C(C(=O)c3ccco3)=C(O)C(=O)N2Cc2cccnc2)cc1` (stereo not shown) is lower in “hERG current change (%, negative = inhibition) at 1uM” value: 11.9% for the first, 10.1% for the second.

Compared with `O=C(CSc1nnc(C2COc3ccccc3O2)o1)N1CCOCC1` (stereo not shown), `COc1cc(/C=C/C(=O)NCCN2CCOCC2)cc(OC)c1OC` is higher in “hERG current change (%, negative = inhibition) at 1uM” value: 7.4% for the first, 11.5% for the second.

Going from `c1ccc(Nc2nc(-c3cccs3)cs2)nc1` to `COc1cccc(CC(NC(C)=O)C(=O)NC2CCN(c3c(Cc4ccccc4)c(C)nc4ncnn34)CC2)c1OC` (stereo not shown), the “hERG current change (%, negative = inhibition) at 1uM” value rises from 3.52% to 4.46%.

Going from `CN1C=CC=C/C1=C1\SC(=S)N(C2CCCCC2)C1=O` to `COc1cc2nc(CN(C)Cc3ccc(C(C)(C)C)cc3)[nH]c(=O)c2cc1OC`, the “hERG current change (%, negative = inhibition) at 1uM” value falls from -3.62% to -3.91%.
